Experimental data taken from the RNAGym collection of RNA variant scans (doi:10.1093/nar/gkz1192).
The source gives no read counts; variants with many changes may rest on few reads.

B1: CPEB3 Ribozyme (parent)
chain: UAACAGGGGGCCACAGCAGAAGCGUUCACGUCGCAGCCCCUGUCAGAUUCUGGUGAAUCUGCGAAUUCUGCUGUAUAUCUC

Variants of: B1
Experiment: self-cleavage, relative activity (ratio to wild type); higher = more cleavage; in vitro, sequencing
Summary of the method: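 Relative activity compares each variant's cleaved/total read fraction with that of the unmutated ribozyme. To get these fractions, barcoded CPEB3 ribozyme libraries from rounds of error-prone PCR were transcribed with T7 RNA polymerase for 5 hours at 37°C and then given 15 min of DNase I treatment before EDTA was added. The RNAs were reverse transcribed with template switching and sequenced on Illumina, and DNA sequencing linked barcodes to variants. A minimum of 5 reads applied, and three batches were averaged.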

Variant	self-cleavage
A13U U26A C38G A57G U78C	0.19
A13U G24A U48C A57G	0.09
C14A A35G U78C	1.32
C14U C23U A64G	0.25
A15C U41A U51A A64G	0.22
A13U U26C C68A	0.17
A15C U48C U67A	0.12
A15G A35G A45U U51C	0.27
C14U C32U A35G U41A U69C U72C	0.08
A15C A18G G22A A47G	0.31
C14U A28G U43G	0.45
A13U C17G U25C A47G U49A U78C	0.14
A13U C23A U41A C44U	0.06
A15C U31C U69A U78C	0.11
A13U U25C A57G U78C	0.16
A13U U41C A56G C59A U60A	0.22
A15G A28G G33C C68A U78A	0.12
A13U U41A U51C G73A	0.27
A15G A28G U76C	0.27
C14U U26A A56G U60C	0.34
C14U U26A U31C U49C	0.12

Variant	self-cleavage
A13U U26G U31C G42U A45C A56U C71A	0.14
A13U C27U U41C	0.07
A15C A35G A47G U51C A65G	0.64
C14U A18C U78C	0.31
A15G A21G U41A A57G A64U	0.11
A13U U26A U78A	1.05
A13U U41C U72A	0.38
C14A U43C U78C	0.41
A13U G30A A35G U78C	0.1
A15C A45U U51C A65G U80C	0.08
A15G A21G U43C A64G G70U A77U	0.14
C14U U49A U72C U74A	1.1
C14G A15C U49C A56G	0.2
A15G A18U U31C G53A	0.36
A13U C14A A15G A57G	0.73
A15G A21G G33A U54C U67A	0.22
C14U A18U U26A U51A C59G U74C A77U	0.2
A15G A18G A28G C37G G70A	0.31
A15G A18U A45U U51C	0.21
A15G A21U A28G U58C	0.19
A15G A21G U58C A64C	0.2

Variant	self-cleavage
A13U U54G U72C	1.21
A13U A35U U60A U80C	0.11
A13U U26C U31A C38U U41A U48C A56U	0.07
A13U U69A U74C	0.83
A15G A20U A28U U67C	0.57
A15G A18U U26C U60A	0.12
C14A G33A U69A U80G	0.11
A13U G19U U41C	0.08
A15G A20U A21G G46U A56G U67C U69G	0.05
A13U A47G G53A	1.38
A13U U49A C50U G63A A64G	0.51
A15G A28G U31A	0.51
A13U C32U A47G A64U A65G U80C	0.08
C14U C39U U41A U51C A57G A77G U78C	0.06
A13U C23U A35G U43A	1.21
A13U A28U A64G	0.92
A15G A21G A28C	0.33
A13U G16A U54A	0.44
A15G A28U U67A U80A	0.23
A13U A35G C37A U41C U54C U74A	0.9
A15C U25C A35G U49A U51A	0.1

Variant	self-cleavage
A13U A35U U41A A57G	0.16
A13U U26C A45G A57G	0.15
A15G A28U U31A U43C U54G G70C U78A	0.04
C14U U51A U54A	0.76
A13U U26C U49C	0.09
A15G A18G A20U C37U U60G U67C	0.08
C14U A35G A45G A56G	1.29
C14U A18G G19U C23U A45U U51C G52C	0.05
C14A A15C A21G U26C	0.06
A15G A35C U60A	0.18
A15C G30C U78C	0.17
A13U A64U U69A	0.39
A15G A35G A45G A75U U78C	0.91
A15G A28G U74C	0.85
A13U C27U A45G U80C	0.09
A13U U31C U69C	0.21
A13U U25C A56G U60C	0.14
C14U G30U C34G A75G	0.07
A13U U54C A75U	1.27
A15G A18G A64G	0.6
A13U A45G U78C	1.06
